Among all 110,000 compounds or so, about 40 (0.04%) were called active. Inconclusive results, whose numbers are uncertain, are shown with a selection of clear calls. Calls follow the shape of the dose curve; as a rule, active = well fitted curve in the direction sought with a large enough effect in the signal ratio (not every such curve was filed as active); inconclusive = small, poorly fitted or top-dose-only effect, or a change in a side signal; inactive = flat fitted curve, though single readings scatter; the % refers to the signal ratio. Potencies beside an inconclusive call are fits to weak or partial responses and may not hold up.
test: IkB Signaling; settings: ABC-DLBCL IkBa-CBG/CBR dual luciferase ratio (green luciferase fused to IkBa over red control in OCI-Ly3 lymphoma cells), 4 h; IkBa stabilization activation: at 57.1 µM (top of the series), scaled: untreated 0%, proteasome inhibitor 100% unless noted;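 as to IkBa stabilization activation: 0% = basal untreated cells and 100% = reference inhibitor full response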
Procedure, shortened: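 Curves were fitted separately to fusion (green), unfused (red) and ratio luminescence, then classed by r2, magnitude and activity. Cells: OCI-Ly3, 4 h compound plus doxycycline at 37C; 10 uM MG-132 defined full response.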
Potency is read from the fitted curve at half-maximal effect.

Row | Structure (SMILES) | IkBa stabilization activation | Potency
1 | CCOC(=O)c1c(-c2ccccc2)csc1NC(=O)CSc1nnnn1C | inconclusive: 3.4% [signal inhibitor] | 
2 | COc1ccc(Br)cc1CNCc1c(C(=O)O)c(C)n(Cc2ccccc2C)c1C | inconclusive: 3.49% [signal inhibitor] | 
3 | CCOc1ccc(-c2cc3nc(C4CCN(C(=O)OC(C)(C)C)CC4)c(C(=O)Nc4cccc(C(F)(F)F)c4)cn3n2)cc1 | inactive: -0.729% | 
4 | Cc1nc2cccnc2n1-c1cccc(C(=O)NCc2cccc(Cl)c2)c1 | inactive: -1.24% | 
5 | COC(=O)c1ccc(/C(O)=C(\C#N)c2nc3ccccc3s2)cc1 |  | inconclusive: 3.98 µM [signal inhibitor, partial curve]
6 | Cc1cc2c(cc1S(=O)(=O)CCC(=O)N1CCN(c3ccccc3)CC1)OCC(=O)N2 | inconclusive: 0.967% [signal inhibitor] | 
7 | COc1ccc(-c2nc(-c3ccccc3OC)no2)cc1OC | inconclusive: 17.6% [signal inhibitor] | 
8 | COc1ccc(-c2nc3scc(CCNS(=O)(=O)c4cccs4)n3n2)cc1 | inconclusive: 3.45% [signal activator] | 
9 | Cc1cccc(N2CCN(C(=O)CS(=O)(=O)Cc3nc(-c4ccccc4F)oc3C)CC2C)c1 (configuration not stated) | inconclusive: -4.08% [signal inhibitor] | 
10 | COc1cc(OC)c(NC(=O)CCc2nc(C3=CCN(Cc4cccc(Cl)c4)CC3)no2)cc1Cl | inconclusive: -1.69% [signal inhibitor] | 
11 | CCc1ccc2c(c1)c(=O)c(S(=O)(=O)c1ccc(F)cc1)cn2CC(=O)Nc1ccccc1OC | inconclusive: 1.42% [signal inhibitor] | 
12 | COc1ccc(-c2cc(C(=O)Oc3ccc(Br)cc3)c3ccccc3n2)cc1 | inactive: 1.53% | 
13 | Cc1ccc(NC(=O)c2oc3ccccc3c2NC(=O)C2CCCCC2)cc1 | inconclusive: -0.0763% [signal inhibitor] | 
14 | Cc1ccc(NC(=O)C2CCC(CNS(=O)(=O)c3cccs3)CC2)cc1C (configuration not stated) | inconclusive: 0.932% [signal inhibitor] | 
15 | COc1cccc(Cn2c(=O)c(-c3cccs3)nc3cnc(N4CCOCC4)nc32)c1 | inactive: -3.66% [at 11.4 µM, scaled: untreated 0%, proteasome inhibitor 100%] | 
16 | CCOC(=O)C1CCN(C(=O)c2ccc(C)c(NC(=O)c3nsc4ccccc34)c2)CC1 | inconclusive: 0.518% [signal inhibitor] | 
17 | CCN(CC)S(=O)(=O)c1cc(C(=O)Nc2nncs2)c(Cl)cc1Cl | inactive: 6.22% | 
18 | CN(C)c1ccc(C(=S)NCc2ccco2)cc1 | inactive: -0.715% | 
19 | CCc1cccc(C)c1Nc1c(-c2cccs2)nc2ncccn12 | inconclusive: -2.58% [signal inhibitor] | 
20 | CCCCn1c(SCC(=O)Nc2ccc3c(c2)OCO3)nc2c1c(=O)n(C)c(=O)n2C | inconclusive: 1.92% [signal inhibitor] | 
21 | CC(C)c1ccc(S(=O)(=O)NCc2nc3cccnc3n2Cc2ccc(F)cc2)cc1 | inconclusive: 1.99% [signal inhibitor] | 
22 | Cc1ccc(C(=O)CC2(O)C(=O)N(CCc3ccccc3)c3ccc(Br)cc32)cc1 (configuration not stated) | inconclusive: 2.27% [signal inhibitor] | 
23 | CCn1c2ccccc2c2cc(Nc3cc(C)nc4ncnn34)ccc21 |  | inconclusive: 1.58 µM [signal activator, partial curve]

Row | Structure (SMILES) | IkBa stabilization activation | Potency
24 | CCOC(=O)c1cc2c(=O)n3ccccc3nc2n(CCCOC)c1=NC(=O)c1cc2ccccc2o1 | inconclusive: -1.29% [signal inhibitor] | 
25 | Cc1ccc2oc(=O)c3cnn(CC(=O)N4CCc5ccccc5C4)c3c2c1 | inconclusive: 3.96% [signal inhibitor] | 
26 | Cc1ccc(O)c(C(=O)CC(=O)c2cccc(F)c2)c1 | inactive: -1.75% | 
27 | Cc1ccc(CCNC(=O)c2cc3ccccn3n2)cc1 | inconclusive: 0.917% [signal inhibitor] | 
28 | Cc1ccc(Cn2c(C)c3cnn(CC(=O)N4CCN(c5cc(C)ccc5C)CC4)c(=O)c3c2C)cc1 | inconclusive: -1.36% [signal inhibitor] | 
29 | COc1cccc(-n2c(C)nc3c(cnn3-c3ccc(C)c(C)c3)c2=O)c1 | inconclusive: 1.43% [signal inhibitor] | 
30 | O=c1oc2ccc(Cl)cc2cc1-c1nc(-c2cccs2)no1 | inconclusive: 7.4% [signal inhibitor] | 
31 | COc1ccc(NC(=O)Cn2c(=O)n(Cc3ccco3)c(=O)c3sc4ccccc4c32)cc1Cl | inconclusive: 4.18% [signal inhibitor] | 
32 | CC(C)c1ccc(NC(=O)CN2C(=O)C3(SCC(=O)N3c3ccc(F)cc3)c3ccccc32)cc1 (configuration not stated) | inconclusive: 3.43% [signal inhibitor] | 
33 | O=C(Nc1ccc(Cl)cc1)c1ccc2c(c1)N(Cc1ccccc1)CCS2 | inconclusive: 2.91% [signal inhibitor] | 
34 | CCN(C(=O)CSc1nc2ccccc2nc1Cc1ccccc1OC)c1ccccc1 | inconclusive: 1.84% [signal inhibitor] | 
35 | CCCC12CN3CC(CCC)(CN(C1)C3c1c[nH]c3ccc(OC)cc13)C2=O (configuration not stated) | inconclusive: 3.92% [signal inhibitor] | 
36 | CCCOc1ccc(CC2C(=O)Nc3ccc(Br)cc32)cc1 (configuration not stated) | inactive: -0.597% | 
37 | Cc1nc(CC(=O)Nc2ccc(C(N)=O)cc2)cs1 | inconclusive: 2.28% [signal inhibitor] | 
38 | CCSC1=NC2(CCN(C(=O)NC3CCCCC3)CC2)N=C1c1ccc(OC)cc1 | inconclusive: -0.533% [signal inhibitor] | 
39 | CCOc1ccccc1CNC(=O)CCc1cn(C)c2ccccc12 | inconclusive: 1% [signal inhibitor] | 
40 | CC(C(=O)NCc1ccccc1)n1ccc2cc(S(=O)(=O)N3CCCC3)ccc21 (configuration not stated) | inconclusive: 0.329% [signal inhibitor] | 
41 | CC(C)c1ccc(NC(=O)CSC2=Nc3ccccc3C3=NC(CCC(=O)NCc4cccs4)C(=O)N23)cc1 (configuration not stated) | inactive: 1.7% | 
42 | CCOc1ccc(NC(=O)c2nn(C)c3c2COc2ccccc2-3)cc1 | inactive: -1.77% | 
43 | CCOc1ccc(S(=O)(=O)Nc2cc3c(C(=O)OCc4ccccc4)c(C)oc3c3ccccc23)cc1 | inconclusive: 11.9% [signal inhibitor] | 
44 | COc1ccc2c(c1)c1c(c(=O)n(-c3cc(Cl)ccc3C)c(=O)n1Cc1ccc(F)cc1)n2C | inactive: -1.46% | 
45 | COc1cccc(-c2cc(NCc3cnc(C)cn3)ncn2)c1 | inactive: 3.07% [at 11.4 µM, scaled: untreated 0%, proteasome inhibitor 100%] | 
46 | Cc1c(Cl)cccc1-n1ncc(C(=O)NC2CCCC2)c1C1CCN(C(=O)OC(C)(C)C)CC1 | inconclusive: 3.85% [signal inhibitor] | 

Row | Structure (SMILES) | IkBa stabilization activation | Potency
47 | Cc1ccc(NC(=O)N2CCN3CCCCC3C2)cc1C (configuration not stated) | inconclusive: 0.895% [signal inhibitor] | 
48 | COc1ccccc1C(=O)OCc1cc(=O)n2c(C)csc2n1 |  | inconclusive: 25.1 µM [signal inhibitor]
49 | COc1ccc(Oc2ncc3nc(-c4ccc(Cl)cc4)c(=O)n(C[C@H]4CCCO4)c3n2)cc1 | inactive: 8.19% [at 11.4 µM, scaled: untreated 0%, proteasome inhibitor 100%] | 
50 | CCCOC(=O)c1c(-c2ccccc2)c(-c2ccccc2)nn(C)c1=O | inconclusive: 0.855% [signal inhibitor] | 
51 | Cc1cc(C)c(-c2n[nH]c3c2C(c2ccccc2F)N(CCO)C3=O)c(O)c1 (configuration not stated) | inconclusive: 5.84% [signal inhibitor] | 
52 | O=c1c2cccc3c2c(nn1CN1CCOCC1)-c1ccccc1-3 | inactive: 1.35% | 
53 | Cc1ccc(-n2nnnc2SCC(=O)NCCC2=CCCCC2)c(C)c1 | inconclusive: 1.32% [signal inhibitor] | 
54 | COc1cccc(NC(=O)CSc2nc(=O)[nH]c3c2CCCC3)c1 | inactive: 5.9% | 
55 | N#C/C(=C(/O)CN1C(=O)c2ccccc2C1=O)c1nc2ccccc2[nH]1 | inconclusive: 7.45% [signal inhibitor] | 
56 | COC(=O)C1CCN(C(=O)COc2cc3sc(C)nc3c3sccc23)CC1 |  | inconclusive: 10 µM [signal inhibitor, partial curve]
57 | Cc1ccc(-n2nc3c(N4CCCC(C(=O)NCc5ccccc5C)C4)nnc(C)c3c2C)cc1 (configuration not stated) | inconclusive: -2.14% [signal inhibitor] | 
58 | O=C(NCCCNCCCNC(=O)c1ccccn1)c1ccccn1 | inactive: -0.712% | 
59 | Cn1c(=O)n(C)c2cc(CNCc3ccccc3Cl)ccc21 | inactive: -0.0916% | 
60 | COc1ccc2nc(N3CCCC(C(=O)NCCCN4CCN(C)CC4)C3)sc2c1 (configuration not stated) | inactive: 0.816% | 
61 | CC(=O)NC(c1ccco1)c1ccc2cccnc2c1O (configuration not stated) | inconclusive: -4.7% [signal inhibitor] | 
62 | Cc1ccc2scc(N3CCCC(C)C3)c(=O)c2c1 (configuration not stated) |  | inconclusive: 25.1 µM [signal inhibitor, partial curve]
63 | O=C(O)/C=C\C=C/c1ccc2c(c1)OCO2 | inactive: 1.56% [at 11.4 µM, scaled: untreated 0%, proteasome inhibitor 100%] | 
64 | CCOc1ccc2c(c1)c(=O)c(C(=O)c1ccccc1)cn2Cc1ccccc1F | inconclusive: -0.726% [signal inhibitor] | 
65 | Cc1ccc2nc(SCC(=O)Nc3c(C)n(C)n(-c4ccccc4)c3=O)[nH]c2c1 | inconclusive: 0.949% [signal inhibitor] | 
66 | COc1ccc(OC)c(CNS(=O)(=O)c2cc(-c3onc(C)c3C)ccc2C)c1 | inconclusive: 2.16% [signal inhibitor] | 
67 | CCc1nnc(NC(=O)CSc2nnc(COc3ccccc3)n2-c2ccc(C)cc2)s1 | inactive: -0.323% | 

From PubChem BioAssay AID445 (National Center for Advancing Translational Sciences (NCATS), 2006)
